In PubChem BioAssay AID652104 (National Center for Advancing Translational Sciences (NCATS), 2013):
Hit rate of the full screen: of about 410,000 compounds, about 7,200 (1.8%) were called active. The shares of active, inactive and inconclusive entries below differ from those in the screen. Calls follow the shape of the dose curve; as a rule, active = well fitted activation curve with a large enough effect; inconclusive = small, poorly fitted or top-dose-only effect, or another doubt; inactive = no such curve, though single readings can be large or run the other way. No potency is given beside an inconclusive call; the fits are too rough.

Assay: qHTS of TDP-43 Inhibitors; also: nearly all actives have a fitted effect of over 50% in size; as to growth rescue (activation): % of control where 0% means no effect
Settings: TDP-43 expressing yeast growth rescue, BacTiter-Glo, 24 h; growth rescue (activation): at 46.1 µM (top of the series) unless noted
In short: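 Cell-based yeast growth screen: TDP-43 expression induced in galactose, inoculum OD600=0.02 after raffinose pregrowth to mid-log. Read-out BacTiter-Glo luminescence at 24 hr, 30 deg C; inhibition of toxicity seen as signal increase.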
Potency is read from the fitted curve at half-maximal effect; tags tell the direction and shape of the fitted curve.

| Structure (SMILES) | Potency | growth rescue (activation) |
| --- | --- | --- |
| Cc1onc(-c2ccccc2Cl)c1C(=O)Nc1cccc2cccnc12 | inconclusive [activator, single point] |  |
| CCCCN1C=C(C(=O)c2ccccc2)C(=O)CC1 | inconclusive [activator, single point] |  |
| O/N=C1\CC/C(=N\O)c2nn(-c3ccc(Cl)cc3Cl)nc21 |  | inactive: -10.8% |
| O=C(COC(=O)c1ccc([N+](=O)[O-])o1)Nc1ccc(N2CCOCC2)cc1 |  | inconclusive: -58.1% [activator] |
| CC(=O)c1ccc(S(=O)(=O)N2CCn3cccc3C2c2ccc(C)cc2)cc1 (stereo not drawn) | inconclusive [activator, full curve, poor fit] |  |
| CCOC(=O)Cn1c(=O)n(CC2CCCO2)c2nc(-c3ccc(C)cc3)nc(C(N)=O)c21 (stereo not drawn) |  | inactive: 11.5% |
| COc1ccc(NC(=O)C2C(c3ccccc3)C2(Cl)Cl)cc1 (stereo not drawn) | inconclusive [activator, partial curve] |  |
| Cc1cc(C)nc(N(C#N)Cc2ccc(Br)cc2)n1 | active: 14.1 µM |  |
| CC(C)c1ccc(C2=CC(c3ccc(C(C)C)cc3)n3nnnc3N2)cc1 (stereo not drawn) |  | inactive: -2.92% |
| Cc1ccc(S(=O)(=O)N2CCN(C(=O)COC(=O)c3ccccc3Cl)CC2)c(C)c1 | active: 25.1 µM |  |
| O=Cc1ccc(-c2ccc(Cl)cc2Cl)[nH]1 | active: 20 µM |  |
| Brc1ccc(Nc2nc(-c3cccnc3)cs2)cc1 | active: 11.2 µM |  |
| CC(C)N1CCN(c2ccc(OC[C@H]3CO[C@](Cn4cncn4)(c4ccc(Cl)cc4Cl)O3)cc2)CC1 | inconclusive [activator, single point] |  |
| COCC(=O)Nc1cc(C)cn(Cc2c(F)cccc2Cl)c1=O |  | inconclusive: 36.2% [activator] |
| Cc1noc(C)c1CSCC(=O)Nc1nc2ccc(F)cc2s1 | inconclusive [activator, partial curve] |  |
| Fc1cc(Cl)cc2ccc(-c3ccccc3)nc12 | inconclusive [activator, partial curve] |  |
| Cc1ccc(C)c(CN2C(=O)c3ccccc3S(=O)(=O)c3ccc(C(=O)N(C)C4CCCCC4)cc32)c1 | inconclusive [activator, partial curve, poor fit] |  |
| O=C(Nc1nnc(CCc2ccccc2)s1)c1ccccc1F | inconclusive [activator, partial curve] |  |
| COc1ccc(C)cc1NC(=O)CSc1ccc(-c2ccco2)nn1 | active: 17.8 µM |  |
| Cc1nc(C)c(-c2ccc(SCC(=O)Nc3ccc(Br)cc3)nn2)s1 | inconclusive [activator, partial curve] |  |
| COc1ncccc1-c1nnn(-c2ccc(F)cc2)n1 | inconclusive [activator, partial curve] |  |
| O=C(CSc1nc(=O)n2ccccc2n1)OCc1ccccc1 | inconclusive [activator, partial curve] |  |
| COc1ccc(C(=O)Nc2ccc(-c3n[nH]c(=S)o3)cc2)cc1 | inconclusive [activator, partial curve] |  |

| Structure (SMILES) | Potency | growth rescue (activation) |
| --- | --- | --- |
| COc1ccc([C@H]2CC(=O)C=C(c3cccc4c3sc3ccccc34)C2)cc1OC |  | inactive: -0.839% |
| COc1ccc(-c2cn3cc(C)ccc3n2)cc1OC | inconclusive [activator, partial curve] |  |
| COc1ccc(N2CCN(C(=O)c3ccc(C)cc3)CC2)c([N+](=O)[O-])c1 | inconclusive [activator, single point] |  |
| O=C(CC(Sc1ccccc1)c1cccs1)c1ccco1 (stereo not drawn) | inconclusive [activator, single point] |  |
| Cc1onc(-c2ccccc2)c1C(=O)OCc1nnc(-c2ccc([N+](=O)[O-])cc2)o1 | inconclusive [activator, single point] |  |
| COc1ccc(CC(=O)NCc2cccc(CNC(=O)Cc3ccc(OC)c(OC)c3)c2)cc1OC |  | inactive: 16.7% |
| CC(C)(C)c1ccc(NC(=O)C2CCCN(c3cnccn3)C2)cc1 (stereo not drawn) | inactive |  |
| CC(CCc1ccccc1)NC(=O)CCC(=O)N1CCC(C(N)=O)CC1 (stereo not drawn) |  | inactive: -2.37% |
| Cc1ccccc1-c1nc(CN2CCC(C(=O)NCc3ccccc3Cl)CC2)c(C)o1 |  | inactive: 7.36% |
| O=C(/C=C/c1ccccc1)c1ccc2c(c1)OCO2 | inconclusive [activator, partial curve] |  |
| CCCOc1ccc(/C=N/NC(=O)CSCc2ccc([N+](=O)[O-])cc2)cc1OCC | inconclusive [activator, full curve] |  |
| CCNC(=O)COc1cccc2ccccc12 | inconclusive [activator, single point] |  |
| Cc1cccc(N2CCN(C(=O)c3ccc(CS(=O)Cc4cccc(Cl)c4)o3)CC2)c1C (stereo not drawn) | inconclusive [activator, partial curve] |  |
| Cc1nn(-c2ccccc2)c(OC(=O)C(C)C)c1Sc1ccc(Cl)cc1 |  | inconclusive: -91.1% [activator] |
| O=C(Cc1ccccc1)NCCC1=CCCCC1 | inconclusive [activator, partial curve] |  |
| Cc1ccc(C)c(Cn2c(-c3cccs3)nc3ccccc32)c1 | active: 20 µM |  |
| CCOc1ccccc1CNS(=O)(=O)c1ccc2[nH]c(=O)ccc2c1 | inconclusive [activator, partial curve, poor fit] |  |
| CCOc1ccc(-c2ccc(NS(=O)(=O)c3cc([N+](=O)[O-])c(C)c([N+](=O)[O-])c3)cc2)nn1 | inconclusive [activator, full curve, poor fit] |  |
| CCOC(=O)c1[nH]ncc1CN1CCCC(C(=O)c2cccc3ccccc23)C1 (stereo not drawn) | inconclusive [activator, full curve, poor fit] |  |
| Cc1ccc(C)c(S(=O)(=O)N2CCN(C(=O)c3ccccc3Cc3ccccc3)CC2)c1 | inconclusive [activator, single point] |  |
| O=C1c2ccccc2C(=O)N1CCc1c(-c2[nH]c3ccccc3c2CCN2C(=O)c3ccccc3C2=O)[nH]c2ccccc12 |  | inactive: 19.7% |
| CC(=O)c1ccc(Sc2ccccc2N)c([N+](=O)[O-])c1 | inconclusive [activator, single point] |  |
| O=C(NCC1CC1)c1cccc2c(-c3ccc(F)c(F)c3)coc12 | inconclusive [activator, single point] |  |

| Structure (SMILES) | Potency | growth rescue (activation) |
| --- | --- | --- |
| O=C(COC(=O)c1cccs1)NCCC1=CCCCC1 | inconclusive [activator, partial curve] |  |
| CC(C)(C)C(=O)C(Cl)C(=O)Nc1ccccc1 (stereo not drawn) |  | inconclusive: -74.8% [activator] |
| COc1ccc(CC(=O)Oc2ccc(C(C)(C)C)cc2)cc1S(=O)(=O)N1CCOCC1 | inconclusive [activator, partial curve, poor fit] |  |
| C[C@@H](NC(=O)[C@@H]1Cc2ccccc2CN1)C(=O)Nc1ccc2c(c1)OCCO2 | inconclusive [activator, single point] |  |
| CCCCN(C)CCCNC(=O)c1cc(-c2ccc(Br)s2)nc2ccccc12 | inconclusive [activator, single point] |  |
| CSc1nsc(SC)c1C(=O)N1CCN(S(=O)(=O)c2ccc(C)cc2)C1C(C)C (stereo not drawn) | inconclusive [activator, partial curve] |  |
| CC(n1cnnn1)C12CC3CC(CC(C3)C1)C2 (stereo not drawn) | inconclusive [activator, partial curve, poor fit] |  |
| OC(CCc1ccncc1)c1ccccc1 (stereo not drawn) | inconclusive [activator, partial curve] |  |
| O=C(Cc1ccccc1)N1CCC(C(=O)N2CCN(c3ccc(F)cc3)CC2)CC1 | inconclusive [activator, partial curve] |  |
| CN(C)c1ccc(/C=N/NC(=S)NCc2ccco2)cc1 | inconclusive [activator, partial curve] |  |
| N#Cc1c(N2CCOCC2)nsc1-c1ccccc1 | inconclusive [activator, partial curve] |  |
| COc1ccc(/C=C/C(=O)NC(=S)NNC(=O)c2ccco2)cc1 | inconclusive [activator, full curve] |  |
| Nc1c(-c2ccc(Cl)cc2)cnn1-c1cccc([N+](=O)[O-])c1 |  | inactive: 12.4% |
| Cc1ccc(C)c(OCC(=O)N2CCN(c3ncccn3)CC2)c1 | inconclusive [activator, partial curve] |  |
| Fc1ccc(Nc2nc(NCc3ccco3)c3ccccc3n2)cc1 | inconclusive [activator, partial curve] |  |
| CCCCCCOc1ccc(C2C(=O)N(C3CCCCC3)CC(=O)N2CCC)cc1 (stereo not drawn) |  | inactive: 15.6% |
| O=C(CNC(=O)c1ccccc1Br)N/N=C\c1cc([N+](=O)[O-])cc(Br)c1O | inconclusive [activator, full curve, poor fit] |  |
| COc1cccc(C(O)c2nc(-c3ccc(F)cc3OC)cs2)c1 (stereo not drawn) | inconclusive [activator, single point] |  |
| CCOc1cccc2cc(C(=O)NCCC3=CCCCC3)c(=O)oc12 | inconclusive [activator, single point] |  |
| O=C(CSc1ccc([N+](=O)[O-])cn1)Nc1ccc(N2CCOCC2)c(Cl)c1 | inconclusive [activator, single point] |  |
| CCOc1ccc(C(=O)Nc2cccc(-c3nc4cc(Cl)cc(Cl)c4o3)c2)cc1 |  | inactive: 15% |
| COC(=O)c1sc(=S)n(-c2cc(F)ccc2F)c1N | inconclusive [activator, single point] |  |
